Target: T1, FLAG-MDM4 (UniProt O15151 1-490)
T1 construct: MDM4; The plasmid is named HA-FLAG-MDM4, the protein in the pull-down FLAG-MDM4; also called HA-FLAG-MDM4
T1 sequence (looked up): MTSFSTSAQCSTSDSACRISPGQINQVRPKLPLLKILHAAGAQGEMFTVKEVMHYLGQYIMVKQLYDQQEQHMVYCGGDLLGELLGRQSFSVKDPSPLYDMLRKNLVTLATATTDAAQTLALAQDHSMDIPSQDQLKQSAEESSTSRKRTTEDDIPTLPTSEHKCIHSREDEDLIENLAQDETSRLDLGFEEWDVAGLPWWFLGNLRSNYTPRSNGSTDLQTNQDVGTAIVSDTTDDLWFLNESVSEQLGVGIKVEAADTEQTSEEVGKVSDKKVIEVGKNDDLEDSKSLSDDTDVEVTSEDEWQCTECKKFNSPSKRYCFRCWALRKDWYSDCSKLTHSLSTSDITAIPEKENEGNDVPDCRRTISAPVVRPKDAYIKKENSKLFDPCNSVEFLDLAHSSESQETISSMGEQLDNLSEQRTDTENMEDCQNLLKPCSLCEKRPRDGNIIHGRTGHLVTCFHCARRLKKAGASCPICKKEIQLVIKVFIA
Experiment: pull-down; FLAG-MDM4 and HA-MDM2B proteins incubated with DMSO or 5 and 10 uM MMRi62 or MMRi67; FLAG-MDM4 pulled down by anti-FLAG beads, multiple washes; bound MDM2B detected by WB with anti-HA
Conditions: both partners purified

- binding result: binds
B1: HA-MDM2B (natural protein)
chain: not shown
notes: also called splice isoform MDM2B
